Assay results reported in the BET-seq Pho4 binding data (Le et al. 2018).
This is one part of the list. The energies were worked out here from pooled read counts, against the library average; single values are noisy.

What follows are sequences tested against T1, Pho4 (S. cerevisiae) (UniProt P07270) (assay: relative binding free energy (BET-seq); higher = weaker binding). Conditions: reference: library average.
T1 sequence: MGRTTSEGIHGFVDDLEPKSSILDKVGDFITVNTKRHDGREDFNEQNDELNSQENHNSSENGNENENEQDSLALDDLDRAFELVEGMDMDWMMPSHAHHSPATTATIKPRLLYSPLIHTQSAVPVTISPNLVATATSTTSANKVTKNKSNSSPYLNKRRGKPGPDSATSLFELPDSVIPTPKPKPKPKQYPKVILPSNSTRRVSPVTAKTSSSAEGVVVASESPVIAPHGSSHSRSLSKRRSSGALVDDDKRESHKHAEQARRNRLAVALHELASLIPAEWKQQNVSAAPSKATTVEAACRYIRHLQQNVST

Row | Sequence | relative binding free energy [kcal/mol]
1 | TAGGGCACGTGTCATG | -0.17
2 | CTTGTCACGTGGGCAT | -0.05
3 | AAGGTCACGTGTTGCG | 0.3
4 | AGGGTCACGTGGGTGA | -0.03
5 | GTTACCACGTGGTGTG | -0.08
6 | ACAGGCACGTGGGTAT | -0.25
7 | AGTAGCACGTGGGTGG | -0.23
8 | ATGATCACGTGTATGT | 0.2
9 | CTTTGCACGTGGATAG | -0.08
10 | ATTAGCACGTGAATTA | 0.2
11 | TTGTACACGTGTGGTT | 0.14
12 | GGTTCCACGTGGGCGT | -0.07
13 | ACTGCCACGTGGTGGT | -0.16
14 | TGGTGCACGTGCAGAA | -0.03
15 | GTAGGCACGTGTTGCG | -0.04
16 | TTGATCACGTGGAGCG | 0.05
17 | GGGGACACGTGAATGC | 0.47
18 | GTCTGCACGTGGGAGG | -0.02
19 | GTTTACACGTGTCTAT | 0.1
20 | GGGTCCACGTGAGTTC | 0.42
21 | TGATTCACGTGGGGCA | 0.18
22 | TTTCGCACGTGGCTTT | -0.13
23 | AATGCCACGTGGGTCT | -0.05

Row | Sequence | relative binding free energy [kcal/mol]
24 | GTAATCACGTGGAGAG | 0.12
25 | ATGTGCACGTGAGAGC | 0.14
26 | GGGGACACGTGGCGTC | -0.01
27 | CAAGGCACGTGTTAAG | 0
28 | ATATACACGTGAGTTG | 0.07
29 | TGGAGCACGTGGCTTA | -0.09
30 | TAGAGCACGTGTTCGT | -0.17
31 | TTGCGCACGTGTTAAG | 0.03
32 | GTGCTCACGTGGGCGG | -0.01
33 | ATGTTCACGTGGAAAA | 0.34
34 | AGTAGCACGTGTATTT | -0.11
35 | TGCGGCACGTGGTTTG | -0.15
36 | GTAGGCACGTGTACGG | 0.04
37 | TCTTGCACGTGATTGT | 0.2
38 | GAGGCCACGTGTTATT | 0.12
39 | GGTGACACGTGATTTA | 0.11
40 | TAAGTCACGTGCTGGG | 0.13
41 | ATAGGCACGTGGGAGA | -0.18
42 | GAGTTCACGTGTCGGT | 0.55
43 | TCGAGCACGTGAGAGT | 0.32
44 | TGTTACACGTGGCGGC | 0.1
45 | TTGGTCACGTGAAAAG | 0.28
46 | TGTGGCACGTGTTGTC | -0.07

Row | Sequence | relative binding free energy [kcal/mol]
47 | TTGGGCACGTGCCGGT | -0.25
48 | AAGTTCACGTGTTTTA | 0.31
49 | TGGCGCACGTGGGAAT | -0.07
50 | GTATGCACGTGTCGGA | 0
51 | CATTTCACGTGCTGTT | 0.21
52 | CTTTGCACGTGTGGTT | 0.07
53 | TTACGCACGTGATGCT | 0.15
54 | TAAGGCACGTGTGCAG | -0.13
55 | TTCGGCACGTGTTCGT | 0.08
56 | ATTGTCACGTGATTGG | 0.25
57 | ATTTGCACGTGCCAGT | -0.1
58 | ATGGGCACGTGGAGGA | -0.14
59 | ATAGGCACGTGTGGTC | -0.13
60 | TTGGGCACGTGAGGTA | 0.21
61 | CTCGACACGTGAGGGG | 0.09
62 | GCTTTCACGTGTTTTT | 0.23
63 | CTTTTCACGTGATGGG | 0.22
64 | ATTGTCACGTGAGTAA | 0.23
65 | TTTGTCACGTGAAGAA | 0.22
66 | CTTTACACGTGGTTTG | 0.1
67 | GCGGGCACGTGTGAGA | 0.08
68 | TTCTGCACGTGGAGAT | 0.08
69 | CTGGTCACGTGGTATG | -0.06

Row | Sequence | relative binding free energy [kcal/mol]
70 | TCGGGCACGTGTGGAT | 0
71 | GTGTTCACGTGACTTG | 0.3
72 | TAGTCCACGTGGAATG | 0.22
73 | TGACGCACGTGATGGT | -0.09
74 | AGTCTCACGTGATGTG | 0.28
75 | ATGGGCACGTGAATTT | 0.18
76 | AGAGTCACGTGGGATT | 0.12
77 | CTGATCACGTGTGTAG | 0.01
78 | CGATTCACGTGATTGA | 0.33
79 | TTTTTCACGTGAGTAG | 0.44
80 | TGTGCCACGTGAAGGT | 0.12
81 | GGTGTCACGTGAGGTG | 0.29
82 | TTAGGCACGTGTGGCT | -0.04
83 | AGGGCCACGTGGTCAG | -0.19
84 | TTGCGCACGTGTGTTA | -0.09
85 | TGTTGCACGTGGAGCG | 0.04
86 | TTTTTCACGTGTGAAT | 0.33
87 | TGGGGCACGTGGTCAA | -0.22
88 | AGGGTCACGTGGAGTC | 0.07
89 | AGTTTCACGTGCGTTT | 0.26
90 | ATGCTCACGTGAGGTG | 0.35
91 | CGCGTCACGTGATGGT | 0.18
92 | TCGTGCACGTGTAGCG | 0.06

Row | Sequence | relative binding free energy [kcal/mol]
93 | GAGGGCACGTGGTCGG | -0.03
94 | CGAGGCACGTGAGCGG | 0.01
95 | GGCTTCACGTGGTGGG | 0.31
96 | AGGAGCACGTGTTTTA | -0.07
97 | AGGTACACGTGCTTTG | 0.02
98 | TTGGGCACGTGTGTAC | -0.1
99 | TCATTCACGTGTATTG | 0.2
100 | ATACGCACGTGGTTTG | -0.14
101 | TTTTGCACGTGACTGG | 0.02
102 | ATTATCACGTGACGAG | 0.3
103 | GGTGGCACGTGCTATT | 0.06
104 | TAGTGCACGTGTTAGG | -0.01
105 | GGAATCACGTGGGGCA | 0.08
106 | TCGTCCACGTGTGGTT | 0.24
107 | CGTGACACGTGTGGGG | 0.03
108 | GTGTACACGTGGATGG | -0.04
109 | ACGGTCACGTGGGTTA | 0.01
110 | CGGTTCACGTGTGTTA | 0.2
111 | CTCTGCACGTGTAGGT | -0.06
112 | GTGTGCACGTGAGCTT | 0.29
113 | TGTTGCACGTGAGTAA | 0.17
114 | AGAGGCACGTGGGATT | -0.15
115 | TGTGTCACGTGTACGG | 0.15
